# Measurements taken from PubChem BioAssay AID485344 (National Center for Advancing Translational Sciences (NCATS), 2010).
# The whole screen tested about 340,000 compounds, of which about 6,900 (2%) were called active. Cut-off read from the data, not from the text of the source: active = inhibition above about 30%; inactive = below that, where a call was filed. This is a selection; strong and weak results do not stand in their true shares. Entries without a call were filed so in the source.
# Biological target: D(2) dopamine receptor (Homo sapiens) (UniProt P14416)
# Sequence of UniProt P14416 (P14416 whole entry, looked up): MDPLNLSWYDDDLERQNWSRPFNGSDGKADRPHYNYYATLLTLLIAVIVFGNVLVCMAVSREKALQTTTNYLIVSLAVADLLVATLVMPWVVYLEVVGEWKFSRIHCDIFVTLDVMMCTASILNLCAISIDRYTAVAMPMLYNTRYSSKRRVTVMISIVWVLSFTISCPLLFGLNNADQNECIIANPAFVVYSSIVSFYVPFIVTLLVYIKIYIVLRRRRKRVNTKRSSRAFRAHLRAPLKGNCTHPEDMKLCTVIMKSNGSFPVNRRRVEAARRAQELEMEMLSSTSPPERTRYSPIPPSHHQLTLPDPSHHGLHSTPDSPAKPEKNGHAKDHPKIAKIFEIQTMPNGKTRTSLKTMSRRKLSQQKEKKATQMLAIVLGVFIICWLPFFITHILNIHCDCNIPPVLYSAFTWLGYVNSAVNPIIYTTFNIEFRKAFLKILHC
# Assay: HTS Assay for Allosteric Antagonists of the Human D2 Dopamine Receptor: Primary Screen for Antagonists; note: 0% is about no effect
# Details: HEK293 TREx D2 cells, calcium flux, dopamine EC80; at 10 µM; stronger effect = higher value
# In short: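 Inhibition of EC80 dopamine-driven calcium flux, recorded kinetically, defines activity here; cells are a tetracycline-induced HEK293 T-REx line expressing force-coupled D2.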
row,Structure (SMILES),inhibition
1,Cc1ccc(NC(=O)N2CCC(CN3CCCC3)CC2)c(C)c1,21.5%
2,COc1cc(C2NC(=O)NC(C)=C2C(=O)OCc2ccc(C)cc2)cc(OC)c1OC (configuration not stated),active: 34.5%
3,COc1ccc(CNC(=O)Nc2cn(CC(C)C)c(=O)c3ccccc23)cc1,-7.1%
4,Cc1cc(Cl)ccc1OCC(=O)N1CCC(c2nc3ccccc3s2)CC1,1.91%
5,CC(=O)c1ccc(NC(=O)CN(C)S(=O)(=O)c2cnc[nH]2)cc1,-1.7%
6,O=C(Nc1cccc(-c2nc3ccccc3o2)c1)C(F)(F)F,15.9%
7,Cc1ccc(OCCSc2nc(C)c(Cc3ccccc3)c(=O)[nH]2)cc1,-8.96%
8,Brc1cccc(CN2CCN(c3ncccn3)CC2)c1,active: 84.7%
9,Cc1cc(C)c(NC(=O)CSc2nncn3c2cc2oc(C)cc23)c(C)c1,-9.97%
10,Cc1ccn2c(Nc3ccc(C(C)C)cc3)c(-c3cccnc3)nc2c1,16.3%
11,Cc1cc(-c2ccccc2)n2nc(-c3ccccc3)cc2n1,8.99%
12,Cc1c(C(=O)O)oc2c1-c1nn(Cc3ccc(Cl)cc3)cc1CC2,0.968%
13,CN(C)CCNC(=O)C(=O)NCC(c1ccc2c(c1)OCO2)N1CCOCC1 (configuration not stated),-12.2%
14,COc1ccccc1N1CCN(C2CCCN(Cc3ccc(Cl)cc3)C2)CC1 (configuration not stated),active: 37.1%
15,Cc1ccc2cccc(NC(=O)C(C)Oc3ccc(Cl)cc3Cl)c2n1 (configuration not stated),3.39%
16,CCOc1ccc(C(c2c(O)cc(C)n(Cc3ccco3)c2=O)N2CCCCC2)cc1 (configuration not stated),0.215%
17,COc1ccccc1C(=O)Nc1c(C(=O)Nc2ccccc2F)oc2ccccc12,7.24%
18,Cc1ccc(NC(=O)CC2Sc3ccc(C(F)(F)F)cc3NC2=O)cc1 (configuration not stated),13.8%
19,COc1cccc(CNS(=O)(=O)c2ccc3c(c2)C(C(C)C)C(=O)N3)c1 (configuration not stated),-4.39%
20,COc1ccc(N2CCN(C(c3ccccc3F)c3sc4nc(-c5ccco5)nn4c3O)CC2)cc1 (configuration not stated),27.7%
21,CCOC(=O)c1c(NC(=O)COc2cccc(C)c2C)sc(C(C)=O)c1C,-5.97%
22,COc1ccc(NC(=O)CN2C(=O)COc3ccc(S(=O)(=O)N4CCCCC4)cc32)cc1OC,-16%
23,CCCCC(=O)N1CCc2cc(OC)c(OC)cc2C1COc1ccc(OC)cc1 (configuration not stated),-1.06%
24,Cc1cc(C)c2c(c1)c(C)cc1nnc(SCC(=O)c3ccc(F)cc3)n12,3.14%
25,COC(=O)c1ccccc1NC(=O)Cn1c(=O)cc(C)c2c(C)nn(C)c21,13.4%

row,Structure (SMILES),inhibition
1,Cc1ccc(C)c(Cn2c(C(=O)O)c(CNCc3cccs3)c3ccccc32)c1,22.1%
2,COc1ccc(CCNc2nc(SCc3ccc(Cl)cc3)nc3ccccc23)cc1OC,-6.83%
3,Cc1cccc(C(=O)Nc2ccc3nc(SCCOc4ccccc4)sc3c2)c1,-13.8%
4,CCc1cnc2c(c1SCC(=O)NCc1ccc(F)cc1)c(=O)n(C)c(=O)n2C,19.1%
5,COc1ccc(C2C=C(c3ccccc3)Nc3nc(NC(=O)/C=C/c4ccccc4Cl)nn32)cc1 (configuration not stated),10.3%
6,Nc1ncc(S(=O)(=O)Nc2ccc(F)cc2F)cn1,0.88%
7,Cc1cc(OCCN2CCCCC2)nc2ccccc12,active: 30.6%
8,Nc1c(C(=O)Nc2cccc(F)c2)c2ccccn2c1C(=O)c1ccccc1,2.66%
9,COC(=O)C1CCN(Cc2ccc(C)cc2)CC1,active: 68.8%
10,CCOc1ccc(CNC(=O)CS(=O)(=O)c2cccc3nsnc23)cc1,3.58%
11,Cc1cc2nc(-c3ccc(NC(=O)c4ccccc4F)cc3)oc2cc1C,-8.84%
12,COc1ccccc1-c1noc(-c2ccc(NC3CCCC3)c([N+](=O)[O-])c2)n1,1.04%
13,CC(C)(C)NC(=O)C1CCCN(S(=O)(=O)c2ccc(-n3cnnn3)cc2)C1 (configuration not stated),active: 32%
14,CC1=CC2=NC(=O)CC(C)(C(=O)N(CC(=O)NC3CCCC3)c3cc(C)cc(C)c3)N2C=C1 (configuration not stated),active: 60.2%
15,COc1ccc(OC)c(CNS(=O)(=O)c2ccc(-c3coc(C)n3)cc2)c1,-21.4%
16,CCC(=O)C1=C(c2ccc(OC)c(OC)c2)N(C(=O)CC)n2c(nnc2-c2ccc(C)cc2)S1,-13.2%
17,CC(=O)c1ccc(N2CCN(c3ccc4cc(S(=O)(=O)N5CCCCC5)ccc4n3)CC2)cc1,-5.53%
18,CCOC(=O)c1ccc(NC(=O)CSc2nc3ccccc3c(=O)n2CCC(=O)NC2CCCCC2)cc1,-27.8%
19,COc1ccc(-c2nc(CS(=O)(=O)CC(=O)NCCc3ccc(C)cc3)c(C)o2)cc1,11.5%
20,COc1ccc(C)cc1NC(=O)CC1NCCNC1=O (configuration not stated),-1.3%
21,Cc1cc(=O)n(Cc2ccccc2)c2c1c(C)nn2C,12%
22,CC(C)N(CCCNC(=O)Cn1ncc2c([nH]c3ccccc32)c1=O)Cc1ccccc1,-22.4%
23,COCCNC(=O)c1ccc2nc(Cc3ccccc3)oc2c1,-14.2%
24,Cc1ccc(Nc2nnc(-c3ccc(C)c(S(=O)(=O)N4CCOCC4)c3)c3ccccc23)cc1,0.921%
25,OCCCN1CCN(CCCOc2ccccc2-c2ccccc2)CC1,active: 53.3%

row,Structure (SMILES),inhibition
1,Cc1cc(NC(=O)CCC(=O)N(Cc2ccco2)C2(C(=O)NC3CCCC3)CCCCC2C)no1 (configuration not stated),active: 33.7%
2,Cc1cc(C)c2c(=O)cc(C(=O)Nc3sc4c(c3C(=O)NCC3CCCO3)CCCC4)oc2c1 (configuration not stated),6.96%
3,CCCCCn1c(CN2CCN(c3ccc(OC)cc3)CC2)nc2c1c(=O)[nH]c(=O)n2C,-9.91%
4,Cc1ccc(Cl)cc1NC(=O)Nc1cccc(OCc2cc(=O)n3ccccc3n2)c1,5.72%
5,CC(C)(C)NCCOc1ccc2ccccc2c1,active: 45.4%
6,COc1ccc(-n2c(-c3ccco3)nc3c(cnn3-c3ccccc3Cl)c2=O)cc1,-8.36%
7,Cc1nn(C)c2c1c(-c1ccccc1)cc(=O)n2CC(=O)NC(C)c1ccccc1 (configuration not stated),-4.78%
8,CCCOc1ccc(C2c3c(-c4c(C)cc(C)cc4O)n[nH]c3C(=O)N2CCO)cc1 (configuration not stated),3.89%
9,O=C(Cn1c(=O)n(Cc2ccccc2)c(=O)c2sc3ccccc3c21)Nc1ccccc1,-3.62%
10,Cc1ccc(Cl)cc1NC(=O)c1sc(-n2nc(C)c(Cc3ccc4c(c3)OCO4)c2C)nc1C,-21.9%
11,CCN1CCOC(=O)C1CC(=O)Nc1ccc(Br)cc1 (configuration not stated),3.89%
12,CCOc1ccc(-c2cc3nc(C4CCN(C(=O)OC(C)(C)C)CC4)c(C(=O)Nc4cc(OC)ccc4OC)cn3n2)cc1,6.24%
13,O=C(NCC(c1ccco1)S(=O)(=O)c1cccs1)c1ccc(F)c(F)c1 (configuration not stated),-19.4%
14,CCc1ccccc1NC(=O)N1CCCn2nc(C)cc21,-3.19%
15,Cn1c(N)c(C(=O)/C=C/c2ccccc2)c(=O)[nH]c1=O,active: 53.6%
16,Cc1nc(-c2ccccc2)sc1-c1ccc(SCC(=O)NCc2ccccc2Cl)nn1,7.55%
17,NC(N)=NC(N)=Nc1ccc2ccccc2c1,active: 32.9%
18,CC1CCN(c2nn3c(=O)c(C(=O)NC(C)C)cnc3s2)CC1,1.25%
19,N#Cc1nc(-c2ccc(COc3ccc(Cl)cc3)o2)oc1N1CCC(C(N)=O)CC1,5.45%
20,O=C(CSc1cn(CC(=O)N2CCCCC2)c2ccccc12)Nc1ccccc1,0.663%
21,COc1ccc(OC)c(C2=NS(=O)(=O)N(C)C(C(=O)Nc3ccc(F)cc3F)=C2)c1,8.3%
22,Cc1ccc(C)c(NC(=O)C2CCCN(c3ncnc4onc(C)c34)C2)c1 (configuration not stated),5.08%
23,COc1cccc(CNC(=O)c2cccc(-n3c(C)nc4cccnc43)c2)c1OC,5.11%
24,Cc1cc(=O)n(Cc2ccc(Cl)cc2)c2c1c(C)nn2-c1ccccc1,-5.1%
25,COc1ccc(OC)c(S(=O)(=O)NCCS(=O)(=O)N2CCN(c3ccccc3)CC2)c1,20.6%

row,Structure (SMILES),inhibition
1,O=C(Cn1c(=O)n(-c2ccccc2)c(=O)c2c3c(sc21)CCCC3)Nc1ccc(F)cc1F,7.55%
2,COc1cc(NC(=O)CCc2c(C)nc3c(-c4ccc(F)cc4)c(C)nn3c2C)cc(OC)c1OC,-21.3%
3,COc1ccc(CNC(=O)C(Cc2ccccc2)NS(=O)(=O)c2ccc3c(c2)CCN3C(C)=O)cc1 (configuration not stated),-8.94%
4,CC1=C(C(=O)Nc2ccccc2)C(c2cccs2)n2nnnc2N1 (configuration not stated),active: 35.8%
5,CCCSc1ncc(Cl)c(C(=O)N2CCN(c3cccc(Cl)c3)CC2)n1,0.421%
6,CCOc1ccc(NC(=O)CC2C(=O)N(c3ccc(OC)cc3)C(=O)N2C2CCCCC2)cc1 (configuration not stated),17.2%
7,CCC(=O)N1CCc2cc(CNS(=O)(=O)c3ccc(C(C)C)cc3)ccc21,-12.2%
8,COC(=O)c1ccc2c(=O)n(CCCCCC(=O)N3CCN(c4cc(C)ccc4C)CC3)c(=O)[nH]c2c1,16.4%
9,COc1cc2nc(NCCc3ccccc3)n3nc(-c4cccnc4)nc3c2cc1OC,2.12%
10,Cc1nn(-c2ccccc2)c2sc(C(=O)Nc3cccc(Cl)c3)cc12,5.01%
11,CCOC(=O)c1c(NC(=O)/C=C/c2ccc(OCC)cc2)sc(C(C)=O)c1C,-14.5%
12,Cc1ccc(C)c(N2CCN(C(=O)CCS(=O)(=O)c3cc(Br)cc4c3N(C(=O)C3CC3)CC4)CC2)c1,3.48%
13,Cc1nc2c3ccccc3nc(NNC(=O)CCC(=O)N3CCN(c4cc(Cl)ccc4C)CC3)n2n1,0.948%
14,CCc1cccc(NC(=O)CSc2nc3ccccc3nc2N2CCCCC2)c1,28.5%
15,COc1ccc(OCC(=O)Nc2cccc(C(=O)OCc3cc(=O)n4nc(C)sc4n3)c2)cc1,7.32%
16,N#Cc1ccccc1COC(=O)c1ccc2c(c1)OCCO2,active: 30.7%
17,COCc1cc(C)nc2sc(C(=O)Nc3ccc(C(C)=O)cc3)c(N)c12,5%
18,CCOc1ccc(NC(=O)CC2C(=O)N(c3ccccc3)C(=O)N2C2CCCC2)cc1 (configuration not stated),-1.55%
19,Cc1ccc(CNC(=O)Cn2nc(N3CCN(c4ccccc4)CC3)ccc2=O)cc1,2.82%
20,Cc1cccc(N2CCN(C(=O)c3cnn(-c4ccc(F)cc4F)c3C3CCN(C(=O)OC(C)(C)C)CC3)CC2)c1C,-9.73%
21,CCCn1c2ccccc2c2cnn(CC(=O)N(CC)c3cc(C)ccc3C)c(=O)c21,24.6%
22,CCCNC(=O)CSc1c2c(nc3ccc(Cl)cc13)CCCC2,0.12%
